The whole screen tested about 360,000 compounds, of which about 7,500 (2.1%) were called active. Inconclusive means that the source gave no clear call. Such entries were picked first, then a sample of the others. Calls follow the shape of the dose curve; as a rule, active = well fitted cell-killing curve with a large enough effect; inconclusive = small, poorly fitted or top-dose-only effect, or effect the other way, or another doubt; inactive = no such curve, though single readings can be large or run the other way. No potency is given beside an inconclusive call; the fits are too rough.
Test: qHTS for induction of synthetic lethality in tumor cells producing 2HG: qHTS for the HT-1080-IDH1KD cell line;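 as to activity, negative = toxicity: 0% = DMSO wells and -100% = cell-free medium wells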
Details: HT-1080 IDH1 knockdown viability, ATP luminescence, 48 h; activity, negative = toxicity: at 46.1 µM (top of the series) unless noted
In short: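 In this qHTS, HT-1080 cells depleted of IDH1 are exposed for 48 h at 37 °C to compound titrations. Toxicity is scored from CellTiter-Glo luminescence, with DMSO as full viability and medium alone as none.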
Potency is read from the fitted curve at half-maximal effect; tags tell the direction and shape of the fitted curve.

Row | SMILES | activity, negative = toxicity | Potency
1 | Cn1c(CSCc2ccccc2Cl)nnc1SCC(=O)Nc1nccs1 | inactive: 1.48% [at 9.24 µM] | 
2 | O=C(Cc1c(F)cccc1Cl)NCCCn1ccnc1 |  | inconclusive [rising, partial curve]
3 | CCOc1ccc(CNC(=O)CCc2cn(C)c3ccccc23)cc1 | inactive: 18.3% | 
4 | CCOc1ccc(S(=O)(=O)NN2Cc3ccccc3C2=N)cc1 | inactive: -1.61% | 
5 | Cc1cc(-n2[nH]c(C)c(C)c2=O)nc(-c2ccccc2O)n1 | inconclusive: -34.8% [cytotoxic] | 
6 | CCCCCc1ccc(C(=O)CCC(=O)OCC(=O)N(CC)c2c(N)n(Cc3ccccc3)c(=O)[nH]c2=O)cc1 |  | inconclusive [cytotoxic, single point]
7 | CC1CCN(c2ccc(NC(=O)c3ccc([N+](=O)[O-])o3)cc2)CC1 |  | active: 7.31 µM
8 | CCNC(=O)C1(C)CCCN(Cc2csc(-c3ccccc3)n2)C1 (stereo not drawn) |  | inconclusive [rising, partial curve]
9 | CCOC(=O)Oc1c(OC)cc(C(=O)O[C@@H]2C[C@@H]3CN4CCc5c([nH]c6cc(OC)ccc56)[C@H]4C[C@@H]3[C@H](C(=O)OC)[C@H]2OC)cc1OC |  | inconclusive [cytotoxic, single point]
10 | Nc1ccc2nc3c(c(Cl)c2c1)CCCC3 |  | inconclusive [cytotoxic, single point]
11 | Cc1c(NC(=O)CSc2nccn2C)c(=O)n(-c2ccccc2)n1C |  | inconclusive [rising, full curve, poor fit]
12 | O=C(NCC(c1cccs1)N1CCOCC1)c1ccc(Br)o1 (stereo not drawn) |  | active: 16.4 µM
13 | COCCCNC(=O)c1cccn2c(=O)c3cc4ccccc4cc3nc12 |  | inconclusive [cytotoxic, single point]
14 | CCCOc1ccc(C(=O)NNC(=S)NC(=O)c2ccco2)cc1 |  | active: 23.1 µM
15 | O=C(c1ccco1)N(Cc1ccco1)c1ccc(O)cc1 | inactive: -1.4% | 
16 | NC(Cc1ccccc1)c1csc(Nc2nccc(C(F)(F)F)n2)n1 (stereo not drawn) |  | inconclusive [cytotoxic, single point]
17 | CCN(CC)CCn1c(=S)[nH]c2cc(Cl)ccc2c1=O |  | inconclusive [cytotoxic, single point]
18 | O=c1[nH]c2ccc(Cl)cc2c(-c2ccccc2)c1SC(=S)N1CCOCC1 |  | inconclusive [cytotoxic, single point]
19 | COc1ccc(C(=O)c2c(NC(C)=O)sc3c2CCN(C(=O)OC(C)(C)C)C3)cc1 |  | inconclusive [cytotoxic, partial curve]
20 | COc1ccc(N2CCN(C(=O)C3CCCN(c4ncnc5c4nc4n5CCCCC4)C3)CC2)cc1 (stereo not drawn) | inactive: -8.91% | 
21 | COC(=O)CCCn1c(C)cc(C(=O)CCl)c1C |  | inconclusive [cytotoxic, single point]
22 | Cc1onc(-c2ccccc2Cl)c1C(=O)Nc1ccc(S(=O)(=O)NCC2CCCO2)cc1 (stereo not drawn) |  | inconclusive [cytotoxic, single point]
23 | O=C(c1ccc(COc2ccc(Br)cc2)o1)N1N=C(C(F)F)CC1(O)C(F)F (stereo not drawn) |  | active: 20.6 µM

Row | SMILES | activity, negative = toxicity | Potency
24 | N#Cc1nc(-c2cccc3ccccc23)oc1NCCN1CCCCC1 |  | inconclusive [cytotoxic, single point]
25 | O=C(Cc1ccccc1)Nc1ccc(-c2nnc(-c3ccco3)o2)cc1 |  | inconclusive [cytotoxic, partial curve]
26 | COc1ccccc1Cc1c(-c2cccc(Br)c2)nc2ccc(Cl)cn12 |  | inconclusive [cytotoxic, single point]
27 | O=C(NC1CCCCCC1)C1CCCN(S(=O)(=O)c2cccs2)C1 (stereo not drawn) |  | inconclusive [cytotoxic, single point]
28 | O=C(NNc1c2ccccc2nc2ccccc12)c1ccccc1O |  | inconclusive [cytotoxic, single point]
29 | CCCC(=O)NC(c1cccs1)c1cc(Cl)c2cccnc2c1O (stereo not drawn) |  | inconclusive [cytotoxic, full curve]
30 | CC12CCC(=O)N1C(C(=O)OCc1c(Cl)cccc1Cl)CS2 (stereo not drawn) | inactive: 0.835% | 
31 | CC(C)(C)NC(=O)CSc1nnc(-c2ccccn2)n1Cc1ccccc1 | inactive: 1.85% | 
32 | CC(=O)Nc1cc(-c2ccccc2)cn2c(-c3ccc(F)c(Cl)c3)cnc12 |  | inconclusive [cytotoxic, single point]
33 | Cc1cnc(NC(=O)C2(C)CCN2C(=O)C(C)C)s1 (stereo not drawn) |  | inconclusive [rising, partial curve]
34 | COc1cc(-c2cccc([C@H]3[C@@H]4C=CC[C@@H](C)[C@@H]4C(=O)N3Cc3ccccc3)c2)cc(OC)c1OC |  | inconclusive [cytotoxic, single point]
35 | CC(OC(=O)c1ccc(O)cc1)C(=O)Nc1cc(C(F)(F)F)ccc1Cl (stereo not drawn) |  | inconclusive [cytotoxic, single point]
36 | Nc1nc(CCl)nc(Nc2cccc3ccccc23)n1 |  | inconclusive [cytotoxic, single point]
37 | O=C1CSC(c2cn(-c3ccccc3)nc2-c2ccccc2)N1Cc1ccco1 (stereo not drawn) |  | inconclusive [cytotoxic, single point]
38 | O=C(Nc1ccc(-c2ccco2)cc1)C1CCCN(Cc2ccc(CO)o2)C1 (stereo not drawn) | inactive: -13% | 
39 | COc1ccc(NC(=O)c2oc3ccccc3c2CSC)cc1S(=O)(=O)N1CCOCC1 | inactive: 10.7% | 
40 | Nc1nonc1-n1nnc(C(=O)N/N=C/C=C/c2ccccc2)c1CSC1=NCCS1 |  | inconclusive [cytotoxic, partial curve]
41 | COc1cc(C2NC(=O)NC(C)=C2C(=O)OC2CCCCC2)cc(Br)c1O (stereo not drawn) |  | inconclusive [cytotoxic, single point]
42 | C[C@@H]1CN([C@@H](C)CO)C(=O)c2cccc(NC(=O)Nc3ccc(F)cc3)c2O[C@@H]1CN(C)Cc1ccc(Oc2ccccc2)cc1 |  | inconclusive [cytotoxic, single point]
43 | Cc1ccc(S(=O)(=O)CS(=O)(=O)c2ccc(C)cc2)cc1 | inconclusive: 9.11% | 
44 | Nc1nc(Cl)c(C=O)c(N2CCCCC2)n1 |  | inconclusive [cytotoxic, single point]
45 | C=C(C)CSc1nc(N)c2c3c(sc2n1)CCC3 |  | inconclusive [cytotoxic, single point]
46 | CCc1nc2c(OCC3CCCCC3)cccn2c1N(C)C(=O)c1ccccc1F |  | inconclusive [cytotoxic, single point]

Row | SMILES | activity, negative = toxicity | Potency
47 | CCOc1cc(/C=N/NC(=O)c2cccnc2)ccc1OCC(=O)N1CCOCC1 | inactive: 21.4% | 
48 | NC(c1csc(Nc2nncc3ccccc23)n1)C1CCCCC1 (stereo not drawn) |  | active: 23.1 µM
49 | Nc1nc(-c2ccccc2)c(N=Nc2ccccc2Cl)s1 |  | active: 18.4 µM
50 | COc1ccc(-c2nn(-c3ccccc3)cc2/C=N/Nc2ccccn2)cc1OC |  | inconclusive [cytotoxic, single point]
51 | COc1ccccc1Cc1c(-c2ccco2)nc2ccc(Cl)cn12 |  | inconclusive [cytotoxic, single point]
52 | O=C1C(Cc2ccccc2)SC(=Nc2ccccc2)N1c1ccccc1 (stereo not drawn) | inactive: -0.391% | 
53 | Cc1c(C(=O)Nc2ccc(Cc3ccncc3)cc2)cccc1[N+](=O)[O-] |  | inconclusive [cytotoxic, single point]
54 | COc1ccc(N2C(=S)NC3c4cc(Cl)ccc4OC2(C)C3C(=O)N(C)C)cc1 (stereo not drawn) |  | inconclusive [cytotoxic, single point]
55 | Cc1cc(C)n2nc(SCc3nnc(SCc4ccccc4C)s3)nc2n1 |  | inconclusive [cytotoxic, single point]
56 | O=C(Nc1cccc2c1CCCC2)c1cc(C2CCCCN2C(=O)c2cccs2)on1 (stereo not drawn) |  | inconclusive [cytotoxic, single point]
57 | CN1CCN(c2nc(-c3ccc(Br)cc3)nnc2-c2ccccc2)CC1 |  | active: 20.6 µM
58 | CC(=O)NC(C)(c1ccccc1)c1nc(-c2ccc(F)c(Cl)c2)cs1 (stereo not drawn) |  | inconclusive [cytotoxic, single point]
59 | CCc1n[nH]c(=S)n1/N=C/c1c[nH]c2ccc(Br)cc12 |  | inconclusive [cytotoxic, single point]
60 | O=C1CC(N2CCCCCC2)C(=O)N1c1ccc2c(c1)OCO2 (stereo not drawn) |  | inconclusive [cytotoxic, single point]
61 | COc1cccc(OCc2cc(/C=N/Nc3ccc(C(=O)O)cc3)ccc2OC)c1 |  | inconclusive [cytotoxic, single point]
62 | CCCCNc1c(-c2ccc(OC)c(SC(C)CC)c2)nc2cc(C)ccn12 (stereo not drawn) |  | active: 23.1 µM
63 | CC1Cc2ccccc2N1C(=O)CSc1nn2c(=O)c(C(C)(C)C)nnc2s1 (stereo not drawn) |  | inconclusive [cytotoxic, single point]
64 | COC(=O)c1ccc(CSc2nnnn2-c2ccc(C)cc2C)o1 |  | inconclusive [cytotoxic, single point]
65 | O=c1[nH]c(C2CCN(S(=O)(=O)c3ccc(C(F)(F)F)cc3)CC2)nc2c1nnn2Cc1cccc(F)c1 |  | inconclusive [cytotoxic, single point]
66 | COc1cccc(-c2sc3cc(OC)c(OC)cc3c2-c2ccc(OCCN3CCCCC3)cc2)c1 |  | active: 16.4 µM
67 | Cc1cccc(C(=O)NC(=S)Nc2ccc(Cc3ccncc3)cc2)c1 |  | inconclusive [cytotoxic, single point]
68 | COc1ccc(C(NC(=O)C2CCN(CCCc3ccccc3)CC2)c2cccs2)cc1 (stereo not drawn) |  | inconclusive [cytotoxic, single point]
